Experimental data from the supplement of paper PMC10126150.
Values marked as one replicate rest on one cluster of the flow cell; about a third of the high ones do not repeat.

Test system: ATP
Assay: switch fluorescence ratio, 500 uM ATP over buffer (Cy3 cluster intensity, sum of 5 cycles each) (fold (ratio)); higher = stronger signal-on switching upon ATP binding; sequences stand for … in TCGTCGGCAGCGTCAGATGTGTATAAGAGACAGTTTTTTTTTTTTTTTTTTTTTTTTT…TC
Details: aptamer strand: ATP DNA aptamer (quencher-CACCTGGGGGAGTATTGCGGAGGAAGG + anchor), 100 nM annealed; ATP concentration: 500 uM; one replicate
Summary of the method: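 Exposure to 500 uM ATP lasted 15 min at 22 °C before imaging, and a selection-buffer image was taken beforehand, for Cy3-labelled switching-strand clusters on a modified Illumina MiSeq flow-cell annealed to 100 nM quencher-labelled ATP aptamer. Five buffer/ATP cycles were run with NaOH stripping and re-annealing between them. The fluorescence ratio per cluster is summed target-cycle over summed buffer-cycle Cy3 intensity, averaged per switch-domain sequence. Clusters outside 100-1000 RFU were excluded.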

| Sequence | switch fluorescence ratio |
| --- | --- |
| CGCTGGGCCC | 1.14 |
| GCCTGAGAGG | 0.993 |
| GGGGAAAAG | 1.03 |
| AGATGTAATA | 1.03 |
| GAAGGCTTGT | 1.02 |
| TTACCGCGAT | 2.9 |
| CATTCCGATA | 1.35 |
| CTATCTCTCC | 1.08 |
| TGTTACTGAT | 1.02 |
| TAGGCCGGTT | 0.967 |
| AGCTCAAGAT | 0.984 |
| ACCTCACGGA | 1.56 |
| TCTTCGAGGA | 1.02 |
| CGGAGTATAG | 1.73 |
| AAAGGACAAT | 1.03 |
| AAGTAATAGT | 1.01 |
| GATGTTGGAC | 0.99 |
| TCAGCTACGA | 1.15 |
| TTCACGTCCA | 1.06 |
| TTCCTGATCC | 0.982 |
| ATTTATGGGA | 0.96 |
| CTAAATTAGG | 0.983 |

| Sequence | switch fluorescence ratio |
| --- | --- |
| TGTACCCAGG | 1.05 |
| GAGCGGTACG | 0.935 |
| TGGGCTCGGA | 0.982 |
| CAAATAATA | 0.984 |
| CGCGGACCCT | 1.11 |
| CCATAAGATA | 1.01 |
| TTGTGGGCAC | 1.05 |
| CGCAGGCCCG | 1.11 |
| GAAGTAGGCC | 1.05 |
| CATGGGGACC | 0.986 |
| CGAGGTTCGC | 0.984 |
| GCGAGCTACC | 1.01 |
| AGCGGTCAGG | 0.994 |
| GCCCTCGACG | 1.03 |
| AACTGGGGTC | 0.965 |
| TGATCCCAGC | 1.05 |
| TCGTACTCGC | 1.05 |
| GTTAAGAACT | 1.06 |
| TGGGGCCATT | 1.18 |
| TGCCTGGGGG | 0.99 |
| GCAGTGTCAA | 0.995 |
| TGCCTTAGT | 1.01 |

| Sequence | switch fluorescence ratio |
| --- | --- |
| ATTGTGAGTG | 1.02 |
| GAAATCGGGT | 1 |
| ATTGCCTATG | 1.02 |
| GCCTGAGATA | 0.947 |
| ACTTTGTATC | 0.963 |
| GGCAGGAGCA | 1.04 |
| AGAGCTTGGA | 0.999 |
| TATCTTTTCC | 1.02 |
| GTCCACTAGA | 1.03 |
| GCGGTGGTTC | 1.03 |
| ATTCATACTT | 0.975 |
| GGTTTGGATG | 1.32 |
| ACATGTCGTC | 0.971 |
| TCCGAGGTTG | 2.19 |
| GCCTTAGAGC | 0.997 |
| TTTAGTATTC | 1.02 |
| TTTGATTGTC | 1 |
| GATGATGTCT | 1.11 |
| TTTATTCTAG | 0.974 |
| GTCATTTATT | 1.03 |
| GCACGCAAAG | 1.08 |
| CGAACATCCC | 1.07 |

| Sequence | switch fluorescence ratio |
| --- | --- |
| GTGCCAGTCC | 1.07 |
| AAACAGCGTC | 1.08 |
| AAGGGATCGA | 0.938 |
| TCGGTTCTAA | 1.04 |
| GCGGTCTGTG | 1.01 |
| AGACTGGGTA | 0.981 |
| TATCGCGTCG | 0.959 |
| GGCCACAGGA | 0.951 |
| AATAGGACAG | 1.02 |
| TGTTCATGAT | 1.02 |
| TGATTTTCCT | 1.06 |
| AAAAGCAGTG | 1.03 |
| ATTTTAGTAG | 1 |
| GATGCGGGTT | 1 |
| CCAGAACTGC | 0.98 |
| AGCCAGGCGT | 1.01 |
| CGAATTACCT | 1.25 |
| ACAACATCAG | 0.983 |
| ACGGACTGCC | 1.15 |
